Results published in article PMC5986797, “Laminin heparin-binding peptides bind to several growth factors and enhance diabetic wound healing” (Nature Communications, 2018).
Results are given in words; binding and its absence hold for the method and conditions named. Some results given as binding are weak or reduced against the parent protein; the word gives no strength.

Chains of the proteins cited; added tags and fusions are not shown. Lines headed by an entry give the natural chain unless they say otherwise; changes in a name come on top. Residues count along the entry.
UniProt P48061, residues 22-89: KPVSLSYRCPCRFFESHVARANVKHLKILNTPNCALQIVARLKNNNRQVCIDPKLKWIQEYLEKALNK
UniProt Q99075, residues 63-148: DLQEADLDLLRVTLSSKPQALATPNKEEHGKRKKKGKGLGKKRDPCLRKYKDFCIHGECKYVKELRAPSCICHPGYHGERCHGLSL
UniProt P01138, residues 122-241: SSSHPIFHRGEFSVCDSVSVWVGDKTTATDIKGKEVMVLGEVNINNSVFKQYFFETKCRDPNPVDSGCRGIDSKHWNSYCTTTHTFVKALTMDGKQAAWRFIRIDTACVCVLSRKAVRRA
UniProt P18075, residues 293-431: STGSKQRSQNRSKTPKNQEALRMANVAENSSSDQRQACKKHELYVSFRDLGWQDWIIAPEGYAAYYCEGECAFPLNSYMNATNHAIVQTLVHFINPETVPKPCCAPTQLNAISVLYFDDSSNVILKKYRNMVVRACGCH
UniProt Q16363: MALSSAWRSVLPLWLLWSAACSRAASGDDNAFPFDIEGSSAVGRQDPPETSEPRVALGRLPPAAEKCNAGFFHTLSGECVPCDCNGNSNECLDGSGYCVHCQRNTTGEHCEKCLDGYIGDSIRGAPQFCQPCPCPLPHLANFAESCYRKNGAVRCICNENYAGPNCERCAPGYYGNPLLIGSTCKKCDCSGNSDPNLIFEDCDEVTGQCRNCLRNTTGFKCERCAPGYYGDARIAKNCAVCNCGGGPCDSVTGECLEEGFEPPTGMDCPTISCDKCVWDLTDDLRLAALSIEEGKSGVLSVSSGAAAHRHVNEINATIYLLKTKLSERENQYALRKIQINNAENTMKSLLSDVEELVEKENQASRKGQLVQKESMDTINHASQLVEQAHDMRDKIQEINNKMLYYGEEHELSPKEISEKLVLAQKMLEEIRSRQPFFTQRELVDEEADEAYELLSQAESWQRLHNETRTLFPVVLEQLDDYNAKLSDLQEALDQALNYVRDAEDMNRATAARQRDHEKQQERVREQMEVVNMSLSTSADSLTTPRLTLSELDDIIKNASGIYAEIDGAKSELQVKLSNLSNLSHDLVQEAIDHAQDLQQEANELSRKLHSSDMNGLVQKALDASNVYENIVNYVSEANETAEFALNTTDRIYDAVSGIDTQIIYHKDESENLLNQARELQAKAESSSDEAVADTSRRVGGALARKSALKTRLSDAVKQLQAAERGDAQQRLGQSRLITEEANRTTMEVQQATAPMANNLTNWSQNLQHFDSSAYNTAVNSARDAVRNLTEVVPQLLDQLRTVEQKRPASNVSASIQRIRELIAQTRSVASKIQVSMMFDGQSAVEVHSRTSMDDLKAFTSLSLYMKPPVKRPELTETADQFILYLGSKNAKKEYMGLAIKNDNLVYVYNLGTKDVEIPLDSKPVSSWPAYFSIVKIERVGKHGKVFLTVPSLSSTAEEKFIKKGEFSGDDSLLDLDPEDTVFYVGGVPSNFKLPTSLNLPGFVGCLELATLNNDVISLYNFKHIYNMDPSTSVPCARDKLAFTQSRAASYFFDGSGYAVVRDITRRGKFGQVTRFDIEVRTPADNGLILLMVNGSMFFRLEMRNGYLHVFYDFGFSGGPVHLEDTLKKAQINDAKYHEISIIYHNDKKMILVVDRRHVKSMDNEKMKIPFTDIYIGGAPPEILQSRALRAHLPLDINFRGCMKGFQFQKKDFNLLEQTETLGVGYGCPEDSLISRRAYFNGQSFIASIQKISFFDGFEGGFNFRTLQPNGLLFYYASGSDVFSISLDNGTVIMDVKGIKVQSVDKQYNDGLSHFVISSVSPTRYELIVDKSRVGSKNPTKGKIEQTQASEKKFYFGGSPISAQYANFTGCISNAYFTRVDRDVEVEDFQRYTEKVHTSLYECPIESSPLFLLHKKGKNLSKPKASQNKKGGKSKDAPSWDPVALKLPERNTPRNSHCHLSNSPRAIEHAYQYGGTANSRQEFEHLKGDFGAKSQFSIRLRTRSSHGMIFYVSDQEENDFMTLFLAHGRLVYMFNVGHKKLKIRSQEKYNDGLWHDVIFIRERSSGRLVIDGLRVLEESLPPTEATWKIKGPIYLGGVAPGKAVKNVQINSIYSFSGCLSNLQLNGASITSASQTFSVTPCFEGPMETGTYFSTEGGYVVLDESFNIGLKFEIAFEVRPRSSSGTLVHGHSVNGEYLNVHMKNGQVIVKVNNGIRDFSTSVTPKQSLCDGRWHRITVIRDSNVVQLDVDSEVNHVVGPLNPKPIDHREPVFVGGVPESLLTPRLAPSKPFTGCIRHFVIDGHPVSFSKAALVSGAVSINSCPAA

Tests used:
Test in all cases: ELISA; plates coated with 50 nM GF or chemokine in PBS; 10 nM laminin isoform in PBS added; bound laminin detected with anti-LAMC1 or anti-LAMA3 polyclonal antibody; A450 signals greater than 0.1 taken as binding; BSA-coated wells as control; both purified
[1] = target: CXCL-12α (UniProt P48061)
[2] = target: heparin-binding epidermal growth factor (HB-EGF) (UniProt Q99075)
[3] = target: β-nerve growth factor (βNGF) (UniProt P01138)
[4] = target: T1, FGF-10 (UniProt O15520)
T1 sequence: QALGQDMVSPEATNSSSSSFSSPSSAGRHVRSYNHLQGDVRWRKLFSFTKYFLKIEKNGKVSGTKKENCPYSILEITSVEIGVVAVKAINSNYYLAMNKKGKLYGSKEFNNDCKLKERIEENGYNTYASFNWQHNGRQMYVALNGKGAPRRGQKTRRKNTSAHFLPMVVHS

[5] = target: BMP-7 (UniProt P18075)
[6] = target: T2, placental growth factor (PlGF)-2 (human) (UniProt P49763)
T2 sequence: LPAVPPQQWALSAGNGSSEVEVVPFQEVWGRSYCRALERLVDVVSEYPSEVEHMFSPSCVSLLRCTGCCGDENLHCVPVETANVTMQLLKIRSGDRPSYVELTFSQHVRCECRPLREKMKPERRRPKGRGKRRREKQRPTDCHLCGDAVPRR

Row | binding [1] | binding [2] | binding [3] | binding [4] | binding [5] | binding [6] | Substance
1 | no binding (tested: 10 nM laminin) | binds weakly | binds weakly | binds | no binding (tested: 10 nM laminin) | binds | recombinant human laminin-411 (from UniProt Q16363 25-1823; P07942 22-1786; P11047 34-1609) (complex)
2 | no binding (tested: 10 nM laminin) | binds weakly | binds weakly | binds | no binding (tested: 10 nM laminin) | binds | recombinant human laminin-421 (from UniProt Q16363 25-1823; P55268 33-1798; P11047 34-1609) (complex)
